From the supplement of paper PMC10126150
Sequences with one replicate were seen in a single cluster, so their values are uncertain.
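Also: ATP exposure 15 min at 22 °C before imaging.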

Each sequence was assayed on ATP (assay: switch fluorescence ratio, 500 uM ATP over buffer (Cy3 cluster intensity, sum of 5 cycles each) (fold (ratio)); higher = stronger signal-on switching upon ATP binding; sequences stand for … in TCGTCGGCAGCGTCAGATGTGTATAAGAGACAGTTTTTTTTTTTTTTTTTTTTTTTTT…TC). Details: aptamer strand: ATP DNA aptamer (quencher-CACCTGGGGGAGTATTGCGGAGGAAGG + anchor), 100 nM annealed; ATP concentration: 500 uM; one replicate.
Outline: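 Clusters with intensities outside 100-1000 RFU were excluded. The remaining Cy3-labelled switching-strand clusters on a modified Illumina MiSeq flow-cell had been annealed to 100 nM quencher-labelled ATP aptamer and imaged in selection buffer, then after 15 min with 500 uM ATP at 22 °C, for five cycles separated by NaOH stripping and re-annealing. The fluorescence ratio, averaged per switch-domain sequence, is each cluster's summed target-cycle Cy3 intensity over its summed buffer-cycle Cy3 intensity.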
GTTCTTTGAG was tested, and the switch fluorescence ratio was 0.938. GTTGAAAGTT was tested, and the switch fluorescence ratio was 1.05. Sequence GTTGAAGCAA has a switch fluorescence ratio of 1.82. Work on GTTGAAGGTG yielded a switch fluorescence ratio of 1.46. For GTTGACATGG, the switch fluorescence ratio was 1.04. In the case of GTTGAGCCTA, the switch fluorescence ratio was 1.06. GTTGAGTCAG showed a switch fluorescence ratio of 1.05. For GTTGATAGG, the switch fluorescence ratio was 0.999. Work on GTTGATATAA yielded a switch fluorescence ratio of 0.962. GTTGATGTTT gave a switch fluorescence ratio of 0.984. In the case of GTTGATTTAG, the switch fluorescence ratio was 1.01. GTTGCACCGG showed a switch fluorescence ratio of 1.01. GTTGCACGAT gave a switch fluorescence ratio of 0.982. GTTGCAGGCG gave a switch fluorescence ratio of 0.991. With GTTGCGAGCC the switch fluorescence ratio was 1.05. Work on GTTGCGTATG yielded a switch fluorescence ratio of 0.953. Sequence GTTGGAAATG has a switch fluorescence ratio of 1.03. With GTTGGATTCA the switch fluorescence ratio was 0.977. With GTTGGCTGGT the switch fluorescence ratio was 0.992. GTTGGGAAAT was tested, and the switch fluorescence ratio was 1.01. With GTTGGGATAG the switch fluorescence ratio was 0.998. In the case of GTTGGTATGG, the switch fluorescence ratio was 1.01. GTTGGTGTCT gave a switch fluorescence ratio of 0.959. For GTTGGTTATT, the switch fluorescence ratio was 1. In the case of GTTGTAAGTA, the switch fluorescence ratio was 0.991. GTTGTAGACT gave a switch fluorescence ratio of 1. Work on GTTGTAGAGG yielded a switch fluorescence ratio of 0.999. For GTTGTAGGA, the switch fluorescence ratio was 0.964. With GTTGTAGGTA the switch fluorescence ratio was 1.04. GTTGTATCCG showed a switch fluorescence ratio of 1.01. With GTTGTATGCT the switch fluorescence ratio was 0.94. With GTTGTCAAAT the switch fluorescence ratio was 1.06. GTTGTCCGT gave a switch fluorescence ratio of 1.08. GTTGTCCTT was tested, and the switch fluorescence ratio was 1. With GTTGTCTACC the switch fluorescence ratio was 1.03. GTTGTCTAGT showed a switch fluorescence ratio of 0.966. With GTTGTCTGGG the switch fluorescence ratio was 0.99. In the case of GTTGTGCACG, the switch fluorescence ratio was 0.988. For GTTGTGGCAG, the switch fluorescence ratio was 0.95. For GTTGTTAACA, the switch fluorescence ratio was 1.01. Sequence GTTGTTATG has a switch fluorescence ratio of 0.997. GTTGTTATGA was tested, and the switch fluorescence ratio was 1.02. For GTTGTTGGCG, the switch fluorescence ratio was 1.01. Work on GTTGTTGGTC yielded a switch fluorescence ratio of 0.985. Work on GTTGTTTCTT yielded a switch fluorescence ratio of 0.975. With GTTGTTTGTG the switch fluorescence ratio was 0.96. For GTTTAACTGA, the switch fluorescence ratio was 1.01. Sequence GTTTAATTGT has a switch fluorescence ratio of 1.01. Sequence GTTTACGCT has a switch fluorescence ratio of 1.06. GTTTACGCTT gave a switch fluorescence ratio of 0.99. GTTTAGATAC showed a switch fluorescence ratio of 2.35. GTTTATGCGG gave a switch fluorescence ratio of 1.04. GTTTATTAGG was tested, and the switch fluorescence ratio was 0.992. In the case of GTTTCAGGAG, the switch fluorescence ratio was 1. In the case of GTTTCAGTAC, the switch fluorescence ratio was 1.04. GTTTCATCTT was tested, and the switch fluorescence ratio was 1.04. GTTTCCGTAA showed a switch fluorescence ratio of 5.43. With GTTTCCTGCG the switch fluorescence ratio was 1.38. For GTTTCGAACA, the switch fluorescence ratio was 0.991. With GTTTCGGA the switch fluorescence ratio was 0.996. In the case of GTTTCTAGGA, the switch fluorescence ratio was 0.992. GTTTCTTTG showed a switch fluorescence ratio of 1.02. With GTTTGAAGCA the switch fluorescence ratio was 0.999. Sequence GTTTGAATCG has a switch fluorescence ratio of 0.984. GTTTGACACA showed a switch fluorescence ratio of 1.02. With GTTTGATAA the switch fluorescence ratio was 1.02. Work on GTTTGCGGA yielded a switch fluorescence ratio of 0.95. For GTTTGCTTTC, the switch fluorescence ratio was 1.02. GTTTGGCTTA was tested, and the switch fluorescence ratio was 0.989. GTTTGGGCGC was tested, and the switch fluorescence ratio was 1.03. With GTTTGTAGTC the switch fluorescence ratio was 1.02. Work on GTTTGTCGTA yielded a switch fluorescence ratio of 1.01. In the case of GTTTGTTGGG, the switch fluorescence ratio was 0.992. Sequence GTTTTAAAAT has a switch fluorescence ratio of 0.964. GTTTTAACGA gave a switch fluorescence ratio of 0.966. Sequence GTTTTAATT has a switch fluorescence ratio of 0.951. Work on GTTTTACGGC yielded a switch fluorescence ratio of 0.994. GTTTTAGG was tested, and the switch fluorescence ratio was 0.996. Work on GTTTTCACCA yielded a switch fluorescence ratio of 1.01. Sequence GTTTTCCGCT has a switch fluorescence ratio of 1.08. In the case of GTTTTCGATT, the switch fluorescence ratio was 0.965. With GTTTTGAAGG the switch fluorescence ratio was 0.959. In the case of GTTTTGCTAA, the switch fluorescence ratio was 1.02. For GTTTTTCGAA, the switch fluorescence ratio was 1.01. With TAAAAACAAG the switch fluorescence ratio was 1.02. Sequence TAAAAACGCA has a switch fluorescence ratio of 1.09. TAAAAATTCG showed a switch fluorescence ratio of 1.01. TAAAAATTTC gave a switch fluorescence ratio of 0.977. In the case of TAAAACCAAC, the switch fluorescence ratio was 1.13. For TAAAAGAAGT, the switch fluorescence ratio was 1.03. Work on TAAAAGCGAC yielded a switch fluorescence ratio of 1.08. Sequence TAAACATCAT has a switch fluorescence ratio of 0.996. For TAAACCTATA, the switch fluorescence ratio was 1.03. Work on TAAACGGACG yielded a switch fluorescence ratio of 1.08. TAAACGGATT gave a switch fluorescence ratio of 1.02. With TAAACGGCGA the switch fluorescence ratio was 1.02. TAAACGTCTT showed a switch fluorescence ratio of 1.14. TAAACTAAGT gave a switch fluorescence ratio of 1.03. Sequence TAAACTCTGG has a switch fluorescence ratio of 1. TAAACTGTCC gave a switch fluorescence ratio of 1.53.
